{"source": "the RNAGym collection of RNA variant scans (doi:10.1093/nar/gkz1192)", "parents": {"B1": {"name": "CPEB3 Ribozyme (parent)", "chain": "UAACAGGGGGCCACAGCAGAAGCGUUCACGUCGCAGCCCCUGUCAGAUUCUGGUGAAUCUGCGAAUUCUGCUGUAUAUCUC"}}, "note": "Read counts are not given, so values of variants with three or more changes are uncertain.", "data": [{"variants_of": "B1", "assay": "self-cleavage, relative activity (ratio to wild type); higher = more cleavage; in vitro, sequencing", "procedure,_shortened": "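Libraries of CPEB3 self-cleaving ribozyme mutants came from rounds of error-prone PCR and carried barcodes, which DNA sequencing matched to variants. In vitro transcription used T7 RNA polymerase at 37°C for 5 hours, with a further 15 min in DNase I before EDTA stopped the reaction; the ribozymes cleaved during both steps. The RNA was reverse transcribed with template switching and sequenced on Illumina. Relative activity is the cleaved/total read fraction of a variant divided by that of the unmutated ribozyme, averaged over three batches with at least 5 reads.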", "values": [{"variant": "UAACAGGGGGCCGCGGCAGAAGCGUCCACGUCACACCCCCUGUCAGAUUCUGGUGAAUCUCCGAAUCCUGCUGUAUAUCUC", "note": "[A13G A15G U26C G33A G36C G61C U67C]", "self-cleavage": 0.05}, {"variant": "UAACAGGGGGCCCCAGUAGAAGCGCUCACGUCGCAGCCCCUGUCAGAUUCUGGUGAAUCUGCGAAUUCAGCUGUAUAUCCC", "note": "[A13C C17U U25C U69A U80C]", "self-cleavage": 0.09}, {"variant": "UAACAGGGGGCCCCAGCAGAAGCGUUCACGUCGCAGCCCCUGACAGAUUCUGGUGAAUCUGCGGAUUCUGCUGUAGAUCUC", "note": "[A13C U43A A64G U76G]", "self-cleavage": 0.88}, {"variant": "UAACAGGGGGCCCCAGCAGAAGCGUUCACGUCGCAGCCCCAGUCAGAUUCUGGUGAAUCUGCGAAUUCAGCCGUAUAUCUC", "note": "[A13C U41A U69A U72C]", "self-cleavage": 0.15}, {"variant": "UAACAGGGGGCCCCAGCAGAAGCGUUCACGUCGCAGCCCCUGACAGAUUCUGGUGAAUCUGCGAAUUCUGCUGUAUUUCUC", "note": "[A13C U43A A77U]", "self-cleavage": 1.06}, {"variant": "UAACAGGGGGCCGCGGCAGAAGCGUUCAAGUCGCAGCCCCUGUCAGAUUCUGGUGAAUCUGCGAAUUCUUCUGUAUAUCUC", "note": "[A13G A15G C29A G70U]", "self-cleavage": 0.14}, {"variant": "UAACAGGGGGCCCCAGCAGAAGCGUUCACGUCGCAGCCCCAGUCAGAUUCUGGUGAAUCUGCGAAUUCUGCUGCAUAUCUC", "note": "[A13C U41A U74C]", "self-cleavage": 0.65}, {"variant": "UAACAGGGGGCCCCAGCAGAAGCGCUCACGUCGCAGCCCCUGUCAGAUUCUGGUGAGUCUGCGAAUUCUGCUGUAUAUCUC", "note": "[A13C U25C A57G]", "self-cleavage": 0.18}, {"variant": "UAACAGGGGGCCCCAGCAGAAGCGCUCACGCCGCAGCCCCUGUCAGAUUCUGGUGAAUCAGCGAAUUCUGCUGUAUAUCUC", "note": "[A13C U25C U31C U60A]", "self-cleavage": 0.22}, {"variant": "UAACAGGGGGCCGCGGCAGAAGCGCUCACGUCGCAGCCCCUGUCAGAUUCUGGAGAAUCUGCGAAUUCUGCUGUAUAUCUC", "note": "[A13G A15G U25C U54A]", "self-cleavage": 0.07}, {"variant": "UAACAGGGGGCCCCAGUAGAAGCGUUCUCGUCGCAGCCCCUGCCAGAUUCUGGUGGAUCCGCGAGUUCUGCUGUAUAUCUC", "note": "[A13C C17U A28U U43C A56G U60C A65G]", "self-cleavage": 0.06}, {"variant": "UAACAGGGGGCCCCAGCAGAAGUGUUCACGUCGCUGCCCCUGUCAGUCUCUGGCGAAUCUGCGAAUUCUGCUGUAUAUCUC", "note": "[A13C C23U A35U A47U U48C U54C]", "self-cleavage": 0.08}, {"variant": "UAACAGGGGGCCCCAGCAGAAGCGUUCACGUCGCAGCCCCUGUCAGGUUCUGGAGAAUCUGCGAAUUCUGCUGUAUAUCUC", "note": "[A13C A47G U54A]", "self-cleavage": 1.07}, {"variant": "UAACAGGGGGCCGCAGCGGAAGCGUUCACGUCGCUACCCCUGUCAGAUUCUGGUGAAUCUGCGAAUCCUGCUGUAUAUCUC", "note": "[A13G A18G A35U G36A U67C]", "self-cleavage": 0.12}, {"variant": "UAACAGGGGGCCCCAGCAGAAGCGUUCACGUCGCAGCCCCUGUCAGAUGCUGGUGAAUCUGCGAAUUCUGCUGUAUACCUC", "note": "[A13C U49G U78C]", "self-cleavage": 0.14}, {"variant": "UAACAGGGGGCCGCGGCAGAAGCGUUCACGUCGCAGCCCCUGUCAGAUUCUGCUGAAUCUGCGAAUUCUGCUGUAUAUCAC", "note": "[A13G A15G G53C U80A]", "self-cleavage": 0.37}, {"variant": "UAACAGGGGGCCCCAGCAGAAGCGUUCACCUCGCAACCCCUGUCAGAUUCUGGUGAAUCUGCGGCUUCUGCUGUAUAUCUC", "note": "[A13C G30C G36A A64G A65C]", "self-cleavage": 0.06}, {"variant": "UAACAGGGGGCCGCAGCGGAAGCGUUCACGUCGCGGCCCCUGUCAGAUUCUUGUGAAUCUGCGAAUUCUGCUGUAUAUCUC", "note": "[A13G A18G A35G G52U]", "self-cleavage": 0.36}, {"variant": "UAACAGGGGGCCCCAGCAGAAGCGUUCACGCCGCAGCCCCUGUCAGAUCCUGGUGAAUCUGCGAAUUCUGCUGUAUAUCUC", "note": "[A13C U31C U49C]", "self-cleavage": 0.12}, {"variant": "UAACAGGGGGCCGCGGCAGAAGCGUUCACGUCGCAGCCCCUGUCAGAUUCUGGUGAAUCUGCGAAUUCUGCUGUAUUUCUC", "note": "[A13G A15G A77U]", "self-cleavage": 0.53}, {"variant": "UAACAGGGGGCCCCAGCAGAAGCGUUCACGUCGCAGCCCCUGUCAGUUACUGGUGAAUCUGCGAAUUCUGCUGUAUAUCUC", "note": "[A13C A47U U49A]", "self-cleavage": 0.5}, {"variant": "UAACAGGGGGCCCCAGCAGAAGAGUUCACGUCGCAGCCUCCGUCAGAUUCUGGUGAAUCUGCGAGUUCUGCUGUAUAUCUC", "note": "[A13C C23A C39U U41C A65G]", "self-cleavage": 0}, {"variant": "UAACAGGGGGCCCCAGCAGAAGGGUUCACGUGGCAGCCCCCGUCAGAUUCUGGUGAAUCUGCGAAUUCUGCUGUAUAUCUC", "note": "[A13C C23G C32G U41C]", "self-cleavage": 0.06}, {"variant": "UAACAGGGGGCCGCUGCAGAAGCGUUCACGUCACAGCCCCUGUGAGAUUCUGGUGGAUCUGCGAAUUCUGCUGUAUAUCUC", "note": "[A13G A15U G33A C44G A56G]", "self-cleavage": 0.13}, {"variant": "UAACAGGGGGCCCCAGCAGAAGCGCUCACGUCGCAGCCCCUGUCAGAUUCUGGUAAAUCUGCGAAUUCUGCUGUAUAUCUC", "note": "[A13C U25C G55A]", "self-cleavage": 0.16}, {"variant": "UAACAGGGGGCCCCAGCAGAAGCGUUCACGUCGCAGCCCCUGACAGAUUCUGGAGAAUCUGCGAAUUCUGCUGUAUAUCUC", "note": "[A13C U43A U54A]", "self-cleavage": 1.04}, {"variant": "UAACAGGGGGCCCCAGCAGAAGCGACCACGUCGCAGCCCCUGUCAGAUUCUGGUGAAUCUGCGAAUUCUGCUGUAUAUCUC", "note": "[A13C U25A U26C]", "self-cleavage": 0.19}, {"variant": "UAACAGGGGGCCGCAGCCGAAGCGUUCACGUCGCUGCCCCUGUCAGAUUCUGGUGAAUCUGCGAAUUCUGCCGUAUAUCUC", "note": "[A13G A18C A35U U72C]", "self-cleavage": 0.21}, {"variant": "UAACAGGGGGCCGCUGCGGAAGCGUUCACGUCGCAGCCCCAGUCAGAUUCUGGCGAAUCUGCGAAUCCUGCUGUAUAUCUC", "note": "[A13G A15U A18G U41A U54C U67C]", "self-cleavage": 0}, {"variant": "UAACAGGGGGCCGCAGCCGAAGCGUCCACGUCGCAGCCCCUGUCAGAUUCUGGUGAAUCUGCGAAUUCUGCUGUAUAUCUC", "note": "[A13G A18C U26C]", "self-cleavage": 0.06}, {"variant": "UAACAGGGGGCCGCGGCAGAAGCGUUCACGUCGCAGCACCUGUCAGAUACUGGCGAAUCUGCGAAUUCUGCUGUAUAUAUC", "note": "[A13G A15G C38A U49A U54C C79A]", "self-cleavage": 0.42}, {"variant": "UAACAGGGGGCCGCUGCAGAAGCGUACACGUCGGAGCCCCUGUCAGAUUCUGGUGAAUCUGCGAAUUCUGCUGUAUAUCUC", "note": "[A13G A15U U26A C34G]", "self-cleavage": 0.42}, {"variant": "UAACAGGGGGCCCCAGCAGAAGCGUUCACGUGGCAACCCCUGUCAGAUUCUGGUGAAUCUGCGAAUUCUGCUGUAUAUCUC", "note": "[A13C C32G G36A]", "self-cleavage": 0.15}, {"variant": "UAACAGGGGGCCGCGGCAGGAGCGUACACGUCGCAUCCCCAGUCAGAUUCUGGUGAAUCUGCGAAUUCUGCUAUAUAUCUC", "note": "[A13G A15G A20G U26A G36U U41A G73A]", "self-cleavage": 0.05}]}]}
